Reference: the RNAGym collection of RNA variant scans (doi:10.1093/nar/gkz1192)
Read counts are not given, so values of variants with three or more changes are uncertain.

B1: CPEB3 Ribozyme (parent)
chain: UAACAGGGGGCCACAGCAGAAGCGUUCACGUCGCAGCCCCUGUCAGAUUCUGGUGAAUCUGCGAAUUCUGCUGUAUAUCUC

Variants of: B1
Test: self-cleavage, relative activity (ratio to wild type); higher = more cleavage; in vitro, sequencing
In short: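 After error-prone PCR and barcoding, CPEB3 ribozyme mutant libraries were transcribed with T7 RNA polymerase at 37°C for 5 hours, then given 15 min with DNase I before an EDTA stop, and they cleaved during both steps. Reverse transcription with template switching preceded Illumina sequencing. Relative activity divides a variant's cleaved/total read fraction by the unmutated ribozyme's. At least 5 reads were required per variant, and three batches were averaged.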

Row | Variant | self-cleavage
1 | UAACAGGGGGCCUCAGCAGGAGCGUUCACGUCGCAGCCCCUGUCAGAUUCUGGUGAGUCUGCGAAUUCCGCUGUAUAUCUC [A13U A20G A57G U69C] | 0.26
2 | UAACAGGGGGCCUCAGCAGUAGCGUUCACGUCGCAGCCCCUGUCUGAUUCUGGUGAAUCUGCAGACUCCGCUGUAUAUCUC [A13U A20U A45U G63A A64G U66C U69C] | 0.05
3 | UAACAGGGGGCCUCAGCUGAAGCGCUCACGUCGCAGCCCCUGCCAGAUUCUGGUGAAUCUACGAAUCCUGCUGAAUAUCUC [A13U A18U U25C U43C G61A U67C U74A] | 0.05
4 | UAACAGGGGGCCUCAGCUGAAGCGUUCACGUCGCAGCCCCUGUCAGUUUCUGGUGAAACUGCGAAUUCUGCUGUAUAUCCC [A13U A18U A47U U58A U80C] | 0.22
5 | UAACAGGGGGCCUCAGCAGGAGCGUUCACGUCGCAGCCCCUGUCAGAUACUGGUGAAUCUGCGAAUUCUGCUGUAUAUCUC [A13U A20G U49A] | 0.4
6 | UAACAGGGGGCCUCAGCAGAGGCGUUCACGUCGUAGCCCCUGUCAGAUCCUGGUGAAGCUGCGAAUUCUGCUGUAUAUCUC [A13U A21G C34U U49C U58G] | 0.05
7 | UAACAGGGGGCCUCAGCAGGAGCGUUCACGUCGCAGCCCCUGUCAGCUUCUGGUGAAUCUGCGAAUUCUGCUGUAUAUCUC [A13U A20G A47C] | 0.24
8 | UAACAGGGGGCCUCAGCAGAGGCGUUCACGUCGCAGCCCCUGUCAGAUUCUGGUGAAUCUGCGAAUUCCGCUGUAUAUCUC [A13U A21G U69C] | 0.15
9 | UAACAGGGGGCCUCAGCAGAGGCGUUCACGUCGCAGCCCCUGUCUGAUUCUGGUGGAUCUGCGAAUUCUGCUGUAUAUCUC [A13U A21G A45U A56G] | 0.4
10 | UAACAGGGGGCCUCAGCAGAAGCGUUCACGUCGCGGCCUCUGUCAGAUUCUGGUGAAUCUGCGAAUUCUGCUGUAUAUCUC [A13U A35G C39U] | 1.28
11 | UAACAGGGGGCCUCAGCUGAAGCGUACGCGUCGCAGCCCCUGUCUGAUUCUGGUGAAUCUGCGAAUUCUGCUGUAUAUCUC [A13U A18U U26A A28G A45U] | 0.17
12 | UAACAGGGGGCCUCAGCAGUAGUGCUCACGUCGCAGCCCCUGUCAGAUUCUGGUGGAUCUGCGAAUUCUGCUGUAUAUCUC [A13U A20U C23U U25C A56G] | 0.19
13 | UAACAGGGGGCCUCAGCAGAGGCGUUCACGUCGCAGCCCCUGUCAGAUUCUGGCGAAUCUGGGAAUUCUGCUGAAUAUCUC [A13U A21G U54C C62G U74A] | 0.04
14 | UAACAGGGGGCCUCAGCAGGUGCGUUCACGCAGCAGCGCCUGUCAGAUUCUGGUGAAUUUGCGAAUUCUGCUGUAUAUCUC [A13U A20G A21U U31C C32A C38G C59U] | 0.06
15 | UAACAGGGGGCCUCAGCUGAAGCGUUCACGUCGCAGCCCCUGACAGAUUCUGGUGAAUCCGCGAAUUCUGCUGCAUAUCUC [A13U A18U U43A U60C U74C] | 0.25
16 | UAACAGGGGGCCUCAGCAGGAGCGUUCACGUCGCGGCCCCUGUCUGAUCCUGGUGAAUCUGCGAAUUCUGCUGCAUAUCUC [A13U A20G A35G A45U U49C U74C] | 0.11
17 | UAACAGGGGGCCUCAGCAGUAGCGUUCACGUAGCAGCCCCUGUCAGAUUCUGGUGAAUCAGCGAAUUCUGCUGUAUAUCCC [A13U A20U C32A U60A U80C] | 0.06

Row | Variant | self-cleavage
18 | UAACAGGGGGCCUCAGCAGAAGCGUUCGCGUCGCAGCCCCUGUCAGAUUCAGGUGAAUCUGUGAAUUCUGCCGUAUAUCUC [A13U A28G U51A C62U U72C] | 0.15
19 | UAACAGGGGGCCUCAGCAGAAGCGUUCGCGUCGCAGCCCCUGCCAGAUUCUGGUGAAUCUGCGAAUUCUGCUGUAUAUCUC [A13U A28G U43C] | 0.3
20 | UAACAGGGGGCCUCAGCAGAAGCGUUCGCGUCGCAGCCCCUGUCAGAUUCUGGUGAAUCUGCGGAUUCUGCUGUAUAUCUU [A13U A28G A64G C81U] | 0.84
21 | UAACAGGGGGCCUCAGCAGAAGCGUUCGCGUCGCAGCCCCAGUCAGAUUCUGGUGAAUCUGCGAAUUCUGCAGUAUAUCUC [A13U A28G U41A U72A] | 0.16
22 | UAACAGGGGGCCUCAGCAGAGGCGUUCGCGUCGCAGCCCCUGUCAGAUUCUGGUGAAUCUGCGAAUUAUGCUGUAUAUCUC [A13U A21G A28G C68A] | 0.14
23 | UAACAGGGGGCCUCAGCAGAAGCGUUCGCGUCGCAGCCCCUGUCAGAUUCUGGUGGAUCUGCGAAUACUGCUGUAUAUCUC [A13U A28G A56G U67A] | 0.13
24 | UAACAGGGGGCCUCAGCAGUAGCGUUCACGUCGCAGCCCCUGACAGAUUCUGGUGAAUCUGCGAAUUCUGCUGUAUACCUC [A13U A20U U43A U78C] | 0.12
25 | UAACAGGGGGCCUCAGCAGAAGCGUUCUCGUCGCAGCCCCUGUCUGAUUCUGGUGAAUCUGCGAACUCUGCUGUAAAGCUC [A13U A28U A45U U66C U76A U78G] | 0.11
26 | UAACAGGGGGCCUCAGCAGGAGCGUUCACGUCACAGCCCCUGUCAGAUUCUGUAGAAUCUGCGAAGUCUGCCGUAUAUCUC [A13U A20G G33A G53U U54A U66G U72C] | 0.04
27 | UAACAGGGGGCCUCAGCAGAGGCGUCCACGUCGCAGCCCCUGUCAGAUUCAGGUGAACCUGCGAAUUCCGCUGUAUAUCUC [A13U A21G U26C U51A U58C U69C] | 0.14
28 | UAACAGGGGGCCUCAGCAGUAGCGUUCACGUCGCAGCCCCUGUCAGAUUCUGGCGAAUCUUCGAGUUCAGCUGUAUAUCUC [A13U A20U U54C G61U A65G U69A] | 0.13
29 | UAACAGGGGGCCUCAGCAGAGGCGUUCACGUCGCAGCCCCUGUCAGAUCCAGGUGAACCUGCGAAUUCUGCUGUAUAUCUA [A13U A21G U49C U51A U58C C81A] | 0.12
30 | UAACAGGGGGCCUCAGCAGAAGCGUUCACGUCGCGGCCCCUGUCAGGUUCUGGUGAAUCUGCGGAUUCUGCUGUAUAUCCC [A13U A35G A47G A64G U80C] | 1.3
31 | UAACAGGGGGCCUCAGCAGAUGCGAUCACGUCGCCGCCCCCGUCAGAUUCUGGUGAAUCUGCGAAUUCUGCUGUAUAUCUC [A13U A21U U25A A35C U41C] | 0.1
32 | UAACAGGGGGCCUCAGCUGAAGCGUUCACGUCGCAGCCCCUGUCUGAUUCUGGCGAAUCUGCGAAUUCUGCUGUAAAUCUC [A13U A18U A45U U54C U76A] | 0.12
33 | UAACAGGGGGCCUCAGCAGGAGCGUUCACGUCGCAGCCCCUGUCAGAUUCCGGUGAAUCUGCGAAUUCUGCUGUAUAUCUC [A13U A20G U51C] | 0.78
34 | UAACAGGGGGCCUCAGCUGAAGCGUUCACGUCGCAGCCCCUGUCAGAUUCUGAUGAAUCUGCGAUUUCUGCUGUAUAUCUC [A13U A18U G53A A65U] | 0.27
